# Data: patent US20260061066A1, “ANTI-GRP78 ANTIBODY, IMMUNOCONJUGATE AND USES THEREOF” (UCT BIOSCIENCE CO., LTD., priority 2024, published 2026)
# Assays:
# THP-1 cells = test: In-vitro cytotoxicity, CCK-8 assay; format: cell-based, human
# Protocol: (§1) In-Vitro cytotoxicity assays of GID10-ADC, DM1 and GID10 on HL-60, HCC1806, MDA-MB-231, Raji, RPMI8226, NCI-H929, MM.1S, G-361, THP-1, PL45, AsPC-1, KLM-1, OV90, 4Tl and EL-4 cells. Cell viability was measured after 48 hours using Cell Counting Kit-8 (CCK-8) assay (DOJINDO™, Cat. No. CK04-13), as shown in Table 3. For example, on Day 0, THP-1 cells were seeded at […] cells per well in a 96-well plate and treated with diluted test compounds. The cells were incubated for 48 hours at 37° C. with 5% CO2. On Day 2, 20 μl of CCK-8 was added to each well, followed by incubation for 1-4 hours. Absorbance at 450 nm was then measured to assess cell viability and the impact of the test compounds. […] Cell viability was measured after 48 hours using the Cell Counting Kit-8 (CCK-8) assay (DOJINDO™, Cat. No. CK04-13). IC50 (M) was calculated to determine the efficacy of the antibody, DM1, and ADC on the various cancer cell lines.
# (§2) In-Vitro cytotoxicity assays of Dxd-conjugated ADC and free payload Dxd on THP-1, NCI-N87, Capan-1, and KLM-1 cells. Cell viability was measured after 48 hours using Cell Counting Kit-8 (CCK-8) assay (DOJINDO™, Cat. No. CK04-13), as shown in Table 4. […] Absorbance at 450 nm was then measured to assess cell viability and the impact of the test compounds. […] Cell viability was measured after 48 hours using the Cell Counting Kit-8 (CCK-8) assay (DOJINDO™, Cat. No. CK04-13). […]
# cell surface GRP78 [1] = molecular target: T1, cell surface GRP78 (Homo sapiens, UniProt P11021); test: Internalization of anti-GRP78 mAb in cancer cells by flow cytometry; format: cell-based; conditions: 30 μg/mL, 37° C. vs 4° C., 10-120 mins
# T1 construct: Ovarian cancer cells were analyzed by flow cytometry for cell surface GRP78 expression; endogenous in cells; host or cells: OVCAR3, OV-90, SKOV3MT1, PL45, AsPC-1, KLM-1, MDA-MB-231, HCC1806, CEM, Raji, G-361, RPMI 8226, NCI-H929, MM.1S, THP-1, HL-60
# T1 sequence (P11021 19-654): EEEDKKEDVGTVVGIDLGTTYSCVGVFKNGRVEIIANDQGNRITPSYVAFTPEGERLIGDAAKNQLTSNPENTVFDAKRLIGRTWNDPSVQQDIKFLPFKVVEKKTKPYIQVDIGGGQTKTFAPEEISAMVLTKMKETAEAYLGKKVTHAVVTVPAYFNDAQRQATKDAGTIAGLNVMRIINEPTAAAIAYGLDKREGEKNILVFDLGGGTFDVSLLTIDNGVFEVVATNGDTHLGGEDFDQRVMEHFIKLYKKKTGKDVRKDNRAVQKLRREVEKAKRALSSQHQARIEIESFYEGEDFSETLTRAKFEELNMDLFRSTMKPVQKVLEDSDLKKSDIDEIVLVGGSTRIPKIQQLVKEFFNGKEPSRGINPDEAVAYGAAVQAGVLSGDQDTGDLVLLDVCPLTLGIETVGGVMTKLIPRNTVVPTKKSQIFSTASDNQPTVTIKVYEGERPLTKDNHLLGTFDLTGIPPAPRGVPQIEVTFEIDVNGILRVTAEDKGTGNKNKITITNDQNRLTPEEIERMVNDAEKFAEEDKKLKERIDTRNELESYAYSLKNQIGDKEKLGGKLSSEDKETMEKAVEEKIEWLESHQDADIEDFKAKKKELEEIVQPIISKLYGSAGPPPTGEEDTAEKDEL
# Protocol: Internalization and degradation of anti-GRP78 ADC and anti-GRP78 antibody can be measured by flow cytometry. Two methods were used in this example: directly fluorescent-labeling on antibodies or the use of fluorescent-conjugated secondary antibodies to detect the primary antibodies left on the cell surface after internalization. Briefly, cancer cells were seeded in a 1×10^5 cell/well. Next, 0.5-1 mg of fluorescent-labelled anti-GRP78 antibody was added to 100 μl of target cell (cell density 1×10^6 cells/ml) in FACS buffer for 1 hour at 4° C. to enable specific binding of anti-GRP78 antibody to the cell surface targets. After incubation, the cells were washed three times with FACS buffer to remove unbound antibody. The cells were then incubated at 37° C. with 5% CO2 for antibody internalization. […] However, in some embodiments of this invention, […] was internalized into Ovarian cancer cells (OVCAR3) (FIG. 2A), melanoma cells (G-361) (FIG. 2B), and myeloma cells (RPMI 8226) (FIG. 2C) during 37° C. incubation confirmed by flow cytometry. […] (30 μg/mL) incubated at 37° C. to allow the antibodies to internalize, while incubated at 4° C. to prevent the internalization of the antibody. The samples were collected at various time points (10, 30, 60, 90 and 120 mins) and determined by comparing the decrease cell surface-bound antibody of samples incubated at 37° C. to control samples incubated at 4° C.
# KLM-1 = test: In-vitro cytotoxicity, CCK-8 assay; format: cell-based; conditions: KLM-1 cells
# Protocol: as §1, §2
# cell surface GRP78 [2] = molecular target: T1, cell surface GRP78; test: Flow cytometry binding of anti-GRP78 antibody to cancer cell surface; format: cell-based; conditions: for binding to the cell surface by flow cytometry: antibody 30 mg/ml
# Protocol: Ovarian cancer cells were analyzed by flow cytometry for cell surface GRP78 expression. The tumor cells were assessed at 4° C. 1 hr using GRP78 specific antibody, followed by Alexa Fluor 488 conjugated secondary antibodies (JACKSON IMMUNO™, 109-545-003, 115-545-003) and analysis by flow cytometry (CYTOFLEX™, BECKMAN).
# Different types of cancer cells were analyzed by flow cytometry for cell surface GRP78 expression.
molecule,measurement,setting,value
G1D10 (antibody) heavy: EVQLVESGGGLVQPGGSLRLSCAASGFTFSNYAMNWVRQAPGKGLEWVSIIYPDSSATYYADSVKGRFTISRDNSKNTLYLQMNSLRAEDTAVYYCARYHFRWGAMDYWGQGTLVTVSS[sequence of human IgG1 constant region omitted] light: DIQMTQSPSSLSASVGDRVTITCRASQGGSRNLNWYQQKPGKAPKLLIYKNSNLQSGVPSRFSGSGSGTDFTLTISSLQPEDFATYYCQQYGSLPWTFGQGTKVEIKRTVAAPSVFIFPPSDEQLKSGTASVVCLLNNFYPREAKVQWKVDNALQSGNSQESVTEQDSKDSTYSLSSTLTLSKADYEKHKVYACEVTHQGLSSPVTKSFNRGEC,cell killing by antibody alone,THP-1 cells,not killed
same,internalization of antibody,cell surface GRP78 [1]; G-361 melanoma cells,internalized
same,internalization of antibody,cell surface GRP78 [1]; OVCAR3 ovarian cancer cells,internalized
same,internalization of antibody,cell surface GRP78 [1]; RPMI 8226 myeloma cells,internalized
same,cell killing by antibody alone,KLM-1,not killed
same,binding to the cell surface by flow cytometry,cell surface GRP78 [2]; AsPC-1 (pancreatic cancer),22.3%
same,binding to the cell surface by flow cytometry,cell surface GRP78 [2]; CEM (T-ALL),23.6%
same,binding to the cell surface by flow cytometry,cell surface GRP78 [2]; G361 (melanoma),63.8%
same,binding to the cell surface by flow cytometry,cell surface GRP78 [2]; HCC1806 (TNBC),50.3%
same,binding to the cell surface by flow cytometry,cell surface GRP78 [2]; HL-60 (AML),98.4%
same,binding to the cell surface by flow cytometry,cell surface GRP78 [2]; KLM-1 (pancreatic cancer),43.9%
same,binding to the cell surface by flow cytometry,cell surface GRP78 [2]; MDA-MB-231 (TNBC),27.3%
same,binding to the cell surface by flow cytometry,cell surface GRP78 [2]; MM.1S (multiple myeloma),40.5%
same,binding to the cell surface by flow cytometry,cell surface GRP78 [2]; NCI-H929 (multiple myeloma),46.5%
same,binding to the cell surface by flow cytometry,cell surface GRP78 [2]; OV90 (ovarian cancer),19.6%
same,binding to the cell surface by flow cytometry,"cell surface GRP78 [2]; OVCAR3 (ovarian cancer), 4° C. 1 hr",23.7%
same,"binding to the cell surface, in words","cell surface GRP78 [2]; OVCAR3, 30 μg/mL, binding ability in general",at a higher level than the conventional anti-GRP78 antibody C38
same,binding to the cell surface by flow cytometry,cell surface GRP78 [2]; PL45 (pancreatic cancer),21.3%
same,binding to the cell surface by flow cytometry,cell surface GRP78 [2]; RPMI8226 (multiple myeloma),74%
same,binding to the cell surface by flow cytometry,cell surface GRP78 [2]; Raji (DLBCL),24.5%
same,binding to the cell surface by flow cytometry,cell surface GRP78 [2]; SKOV3MT1 (ovarian cancer),59.1%
same,binding to the cell surface by flow cytometry,cell surface GRP78 [2]; THP-1 (AML),100%
